Reference: the supplement of paper PMC10338343
± gives the standard deviation. This is a selection; strong and weak results do not stand in their true shares.

Test system: MIWI (PIWIL1) piRISC loaded with L1MC piRNA (30 nt)
Test: pre-steady-state target cleavage rate (min^-1); MIWI and MILI are mouse PIWI proteins and EfPiwi is from a freshwater sponge; tags in brackets are library labels; higher = faster piRNA-guided slicing of the target
Conditions: guide: L1MC piRNA 5'p-UAACUAAAUACUAUGCAAGCUGUAGGUCCU
Method in brief: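 The method was Cleave-'n-Seq, in which uncleaved targets from a transcribed, DNA-blocked target RNA library were sequenced after exposure to active affinity-purified piRISC carrying one synthetic guide, with or without GTSF1 partner protein. Reactions contained 0.1 nM library, 1 nM piRISC and, where present, 500 nM GTSF1 in HEPES–potassium acetate buffer at 33 °C for 0–8 or 0–960 min. Reads were normalised to depth and to weakly complementary targets, three trials were pooled, and k3 was capped at 0.0001 min^-1. The pre-steady-state cleavage rate came from a burst-and-steady-state fit.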

[1] = auxiliary factor: 500 nM mouse GTSF1
[2] = auxiliary factor: none (no GTSF1)

Sequence: UCCUGCUACUGCUUGCAUAGUAUUUAGUAA
- pre-steady-state target cleavage rate [1]: 0.182 ± 0.03
- pre-steady-state target cleavage rate [2]: 0.00963 ± 0.0018

Sequence: UCCUGGAUGAGCCUUGCAUAGUAUUUAGUUA
- pre-steady-state target cleavage rate [1]: 0.458 ± 0.035
- pre-steady-state target cleavage rate [2]: 0.0177 ± 0.0054

Sequence: AGGAGCUACAGCUUGCAUAGUAUUUACUUA
- pre-steady-state target cleavage rate [1]: 0.368 ± 0.05
- pre-steady-state target cleavage rate [2]: 0.0464 ± 0.0098

Sequence: UCCUGGAACAGCUUGCAUCGUAUUUAGUUA
- pre-steady-state target cleavage rate [1]: 0.37 ± 0.026
- pre-steady-state target cleavage rate [2]: 0.0411 ± 0.0093

Sequence: UCCUCCUACAGCUUGGAUAGUAUUUAGAAA
- pre-steady-state target cleavage rate [1]: 0.203 ± 0.031
- pre-steady-state target cleavage rate [2]: 0.00274 ± 0.0023

Sequence: UGGACCUACAGGUUGCAUAGUAUAUAGUUA
- pre-steady-state target cleavage rate [1]: 0.549 ± 0.056
- pre-steady-state target cleavage rate [2]: 0.0198 ± 0.0053

Sequence: UCCUGGAUCAGCUUGCGUAGUAUUUAGUUA
- pre-steady-state target cleavage rate [1]: 1.2 ± 0.064
- pre-steady-state target cleavage rate [2]: 0.022 ± 0.0054

Sequence: UGGACCUACAGCUUGCAUUCUAUUUAGUUA
- pre-steady-state target cleavage rate [1]: 0.268 ± 0.025
- pre-steady-state target cleavage rate [2]: 0.0115 ± 0.0044

Sequence: UCCUCCAACAGCUUGCAUACUAUUUAGUUA
- pre-steady-state target cleavage rate [1]: 0.39 ± 0.017
- pre-steady-state target cleavage rate [2]: 0.0364 ± 0.0072

Sequence: UCCUGGAUGAGCUUGCAAAGUAUUUAGUAA
- pre-steady-state target cleavage rate [1]: 0.466 ± 0.042
- pre-steady-state target cleavage rate [2]: 0.023 ± 0.0089

Sequence: UCCUCGUACAGCUUGCAUAGUAUUUAGAUA
- pre-steady-state target cleavage rate [1]: 0.413 ± 0.034
- pre-steady-state target cleavage rate [2]: 0.0216 ± 0.004

Sequence: UGGACCUACAGGAAGCAUAGUAUUUAGUAA
- pre-steady-state target cleavage rate [1]: 0.573 ± 0.074
- pre-steady-state target cleavage rate [2]: 0.00377 ± 0.0021

Sequence: UCCUGGAACAGGUUGCAUAGUAUAUAGUUA
- pre-steady-state target cleavage rate [1]: 0.426 ± 0.034
- pre-steady-state target cleavage rate [2]: 0.00898 ± 0.0024

Sequence: UCGACCUUCAGCUUGCAUAGUAAUUAGUUA
- pre-steady-state target cleavage rate [1]: 0.939 ± 0.044
- pre-steady-state target cleavage rate [2]: 0.0332 ± 0.0081

Sequence: UCGACCUACAGCUUGCAUUGUAUUUAGAUA
- pre-steady-state target cleavage rate [1]: 0.39 ± 0.036
- pre-steady-state target cleavage rate [2]: 0.0102 ± 0.003

Sequence: UCCUGGAUGUGCUUGCAUAGUAUUUAGUCA
- pre-steady-state target cleavage rate [1]: 0.194 ± 0.017
- pre-steady-state target cleavage rate [2]: 0.0167 ± 0.004

Sequence: UCCACCUUCAGCUAGCAUAGUAUUUAGUUA
- pre-steady-state target cleavage rate [1]: 1.03 ± 0.028
- pre-steady-state target cleavage rate [2]: 0.0174 ± 0.004

Sequence: UCGACCUACAGCUUGCAUAGUAUUCAGUUA
- pre-steady-state target cleavage rate [1]: 0.854 ± 0.06
- pre-steady-state target cleavage rate [2]: 0.0403 ± 0.0073

Sequence: UCCUGGAUCAGCUUGCAAAGUAUUUACUUA
- pre-steady-state target cleavage rate [1]: 0.264 ± 0.021
- pre-steady-state target cleavage rate [2]: 0.0176 ± 0.0051

Sequence: UCCUGCUACAGCUUGCAAAGUAAUUAGUUA
- pre-steady-state target cleavage rate [1]: 0.441 ± 0.035
- pre-steady-state target cleavage rate [2]: 0.00918 ± 0.0032
